Reference: patent US11178870B2 (priority 2017, dated 2021)

Test system: Colletotrichum orbiculare
Conditions: in vivo

SMILES: CCn1c(-c2c(F)cccc2F)c(C2OCCO2)cc(Cl)c1=O [Compound 13]
- Test H control value: H (key: H shows the control value more than 50%; L shows the control value of 50% or less)

SMILES: CCn1c(-c2c(F)cc(F)cc2F)c(-n2cc(Br)cn2)cc(Br)c1=O [Compound 77]
- Test H control value: H (key: H shows the control value more than 50%; L shows the control value of 50% or less)

SMILES: CCn1c(-c2c(F)cccc2F)c(-c2cnco2)cc(Cl)c1=O [Compound 42]
- Test H control value: H (key: H shows the control value more than 50%; L shows the control value of 50% or less)

SMILES: CCn1c(-c2c(F)cccc2F)c(-c2ocnc2Cl)cc(Cl)c1=O [Compound 50]
- Test H control value: H (key: H shows the control value more than 50%; L shows the control value of 50% or less)

SMILES: CCn1c(-c2ccccc2Br)c(-n2cc(Cl)cn2)ccc1=O [Compound 183]
- Test H control value: H (key: H shows the control value more than 50%; L shows the control value of 50% or less)

SMILES: CCn1c(-c2c(F)cccc2F)c(-c2ccsc2Br)cc(Cl)c1=O [Compound 45]
- Test H control value: L (key: H shows the control value more than 50%; L shows the control value of 50% or less)

SMILES: O=c1ccc(-c2cccnc2Cl)c(-c2c(F)cc(F)cc2F)n1CC(F)F [Compound 67]
- Test H control value: H (key: H shows the control value more than 50%; L shows the control value of 50% or less)

SMILES: CCn1c(-c2c(F)cc(F)cc2F)c(-c2ocnc2Cl)cc(Br)c1=O [Compound 107]
- Test H control value: H (key: H shows the control value more than 50%; L shows the control value of 50% or less)

SMILES: COc1cc(F)c(-c2c(-n3cc(Cl)cn3)cc(Cl)c(=O)n2CC(F)(F)F)c(F)c1 [Compound 122]
- Test H control value: L (key: H shows the control value more than 50%; L shows the control value of 50% or less)

SMILES: Cn1c(-c2c(F)cc(F)cc2F)c(-c2cccnc2Cl)ccc1=O [Compound 98]
- Test H control value: H (key: H shows the control value more than 50%; L shows the control value of 50% or less)

SMILES: CCn1c(-c2c(F)cc(F)cc2F)c(-n2ncnc2I)cc(Cl)c1=O [Compound 48]
- Test H control value: H (key: H shows the control value more than 50%; L shows the control value of 50% or less)

SMILES: CCn1c(-c2ccc(F)cc2Cl)c(-c2ocnc2C)cc(Cl)c1=O [Compound 38]
- Test H control value: L (key: H shows the control value more than 50%; L shows the control value of 50% or less)

SMILES: CCn1c(-c2c(F)cc(F)cc2F)c(-n2cc(C)c(C)n2)ccc1=O [Compound 109]
- Test H control value: H (key: H shows the control value more than 50%; L shows the control value of 50% or less)

SMILES: CCn1c(-c2c(F)cccc2F)c(-n2cc(Cl)cn2)cc(Cl)c1=O [Compound 53]
- Test H control value: H (key: H shows the control value more than 50%; L shows the control value of 50% or less)

SMILES: O=c1c(Cl)cc(-c2cccnc2Cl)c(-c2c(F)cccc2F)n1CC(F)F [Compound 57]
- Test H control value: H (key: H shows the control value more than 50%; L shows the control value of 50% or less)

SMILES: CCn1c(-c2c(F)cccc2F)c(C2OCCCO2)cc(Cl)c1=O [Compound 11]
- Test H control value: L (key: H shows the control value more than 50%; L shows the control value of 50% or less)

SMILES: CCn1c(-c2ccccc2Cl)c(-n2ncc(C)c2Cl)cc(Br)c1=O [Compound 181]
- Test H control value: H (key: H shows the control value more than 50%; L shows the control value of 50% or less)

SMILES: CCn1c(-c2c(F)cc(F)cc2F)c(-n2cc(Cl)c(C)n2)cc(Br)c1=O [Compound 144]
- Test H control value: L (key: H shows the control value more than 50%; L shows the control value of 50% or less)

SMILES: CCn1c(-c2c(F)cccc2F)c(-c2cnc(I)o2)cc(Cl)c1=O [Compound 92]
- Test H control value: L (key: H shows the control value more than 50%; L shows the control value of 50% or less)

SMILES: CCn1c(-c2ccc(OC)cc2Cl)c(-n2cc(Cl)cn2)cc(Cl)c1=O [Compound 159]
- Test H control value: H (key: H shows the control value more than 50%; L shows the control value of 50% or less)

SMILES: Cn1c(-c2c(F)cc(F)cc2F)c(-n2cc(Cl)cn2)ccc1=O [Compound 174]
- Test H control value: H (key: H shows the control value more than 50%; L shows the control value of 50% or less)

SMILES: CCn1c(-c2c(F)cc(F)cc2F)c(-n2cccn2)cc(Cl)c1=O [Compound 84]
- Test H control value: H (key: H shows the control value more than 50%; L shows the control value of 50% or less)

SMILES: CCn1c(-c2c(F)cc(F)cc2F)c(-n2nc(C)c(Br)c2C)cc(Br)c1=O [Compound 117]
- Test H control value: L (key: H shows the control value more than 50%; L shows the control value of 50% or less)

SMILES: CCn1c(-c2ccccc2Cl)c(-n2cc(Cl)cn2)ccc1=O [Compound 169]
- Test H control value: H (key: H shows the control value more than 50%; L shows the control value of 50% or less)

SMILES: CCn1c(-c2ccc(F)cc2Br)c(-n2cc(Cl)cn2)ccc1=O [Compound 164]
- Test H control value: H (key: H shows the control value more than 50%; L shows the control value of 50% or less)

SMILES: CCn1c(-c2ccc(F)cc2F)c(-n2cc(Cl)cn2)ccc1=O [Compound 145]
- Test H control value: H (key: H shows the control value more than 50%; L shows the control value of 50% or less)

SMILES: CCn1c(-c2ccc(OC)cc2Cl)c(-c2cnco2)cc(Cl)c1=O [Compound 33]
- Test H control value: L (key: H shows the control value more than 50%; L shows the control value of 50% or less)

SMILES: CCn1c(-c2c(F)cc(F)cc2F)c(-n2cncn2)cc(Br)c1=O [Compound 47]
- Test H control value: H (key: H shows the control value more than 50%; L shows the control value of 50% or less)

SMILES: CCn1c(-c2c(F)cc(OC)cc2F)c(-c2oc(Cl)nc2Cl)cc(Cl)c1=O [Compound 114]
- Test H control value: H (key: H shows the control value more than 50%; L shows the control value of 50% or less)

SMILES: CCn1c(-c2c(F)cccc2F)c(-c2ccsc2Br)ccc1=O [Compound 44]
- Test H control value: H (key: H shows the control value more than 50%; L shows the control value of 50% or less)

SMILES: CCn1c(-c2c(F)cc(F)cc2F)c(-n2cc(C)cn2)cc(Br)c1=O [Compound 101]
- Test H control value: H (key: H shows the control value more than 50%; L shows the control value of 50% or less)

SMILES: Cn1c(-c2c(F)cccc2F)c(-c2cccnc2Cl)cc(Cl)c1=O [Compound 105]
- Test H control value: H (key: H shows the control value more than 50%; L shows the control value of 50% or less)

SMILES: CCn1c(-c2ccc(F)cc2Cl)c(-n2cc(Cl)cn2)cc(Cl)c1=O [Compound 157]
- Test H control value: H (key: H shows the control value more than 50%; L shows the control value of 50% or less)

SMILES: O=c1c(Br)cc(-c2cccnc2Cl)c(-c2c(F)cc(F)cc2F)n1CC(F)F [Compound 69]
- Test H control value: H (key: H shows the control value more than 50%; L shows the control value of 50% or less)

SMILES: CCn1c(-c2c(F)cc(F)cc2F)c(-n2cnc(Cl)c2Cl)cc(Br)c1=O [Compound 139]
- Test H control value: H (key: H shows the control value more than 50%; L shows the control value of 50% or less)

SMILES: CCn1c(-c2ccc(F)cc2Cl)c(-n2cc(Cl)cn2)ccc1=O [Compound 156]
- Test H control value: H (key: H shows the control value more than 50%; L shows the control value of 50% or less)

SMILES: CCn1c(-c2c(F)cc(OC)cc2F)c(-c2cccnc2Cl)cc(Cl)c1=O [Compound 80]
- Test H control value: H (key: H shows the control value more than 50%; L shows the control value of 50% or less)

SMILES: CCn1c(-c2c(F)cccc2F)c(-c2ocnc2F)cc(Cl)c1=O [Compound 51]
- Test H control value: H (key: H shows the control value more than 50%; L shows the control value of 50% or less)

SMILES: CCn1c(-c2c(F)cc(NC)cc2F)c(-c2cnco2)cc(Cl)c1=O [Compound 119]
- Test H control value: L (key: H shows the control value more than 50%; L shows the control value of 50% or less)

SMILES: CCn1c(-c2c(F)cc(OC)cc2F)c(-c2ccnn2C)cc(Cl)c1=O [Compound 28]
- Test H control value: H (key: H shows the control value more than 50%; L shows the control value of 50% or less)

SMILES: CCn1c(-c2c(F)cc(F)cc2F)c(-n2nc(C)c(Cl)c2C)ccc1=O [Compound 95]
- Test H control value: H (key: H shows the control value more than 50%; L shows the control value of 50% or less)

SMILES: Cn1c(-c2c(F)cccc2F)c(-c2ccsc2)ccc1=O [Compound 15]
- Test H control value: H (key: H shows the control value more than 50%; L shows the control value of 50% or less)

SMILES: CCn1c(-c2c(F)cc(OC)cc2F)c(-c2cccnc2Cl)cc(Br)c1=O [Compound 81]
- Test H control value: H (key: H shows the control value more than 50%; L shows the control value of 50% or less)

SMILES: CCn1c(-c2ccc(OC)cc2Br)c(-n2cc(Cl)cn2)cc(Cl)c1=O [Compound 167]
- Test H control value: H (key: H shows the control value more than 50%; L shows the control value of 50% or less)

SMILES: CCn1c(-c2c(F)cc(F)cc2F)c(-c2nn(C)cc2C)cc(Cl)c1=O [Compound 19]
- Test H control value: H (key: H shows the control value more than 50%; L shows the control value of 50% or less)

SMILES: CCn1c(-c2ccc(OC)cc2F)c(-n2cc(Cl)cn2)cc(Br)c1=O [Compound 152]
- Test H control value: H (key: H shows the control value more than 50%; L shows the control value of 50% or less)

SMILES: CCn1c(-c2c(F)cc(F)cc2F)c(-n2ncnc2Br)cc(Br)c1=O [Compound 46]
- Test H control value: H (key: H shows the control value more than 50%; L shows the control value of 50% or less)

SMILES: CCn1c(-c2c(F)cc(OC)cc2F)c(-n2c(C)ccc2C)cc(Cl)c1=O [Compound 126]
- Test H control value: H (key: H shows the control value more than 50%; L shows the control value of 50% or less)

SMILES: CCn1c(-c2c(F)cc(F)cc2F)c(-n2cc(Cl)c(C)n2)ccc1=O [Compound 141]
- Test H control value: H (key: H shows the control value more than 50%; L shows the control value of 50% or less)

SMILES: CCn1c(-c2c(F)cc(F)cc2F)c(-c2cccnc2Cl)cc(Cl)c1=O [Compound 62]
- Test H control value: H (key: H shows the control value more than 50%; L shows the control value of 50% or less)

SMILES: CCn1c(-c2c(F)cccc2F)c(-c2ncc(OC)o2)cc(Cl)c1=O [Compound 162]
- Test H control value: L (key: H shows the control value more than 50%; L shows the control value of 50% or less)

SMILES: O=c1c(Cl)cc(-c2cccnc2Cl)c(-c2c(F)cccc2F)n1CC(F)(F)F [Compound 60]
- Test H control value: L (key: H shows the control value more than 50%; L shows the control value of 50% or less)
